Results from PubChem BioAssay AID493208 (National Center for Advancing Translational Sciences (NCATS), 2011).
Out of some 44,000 compounds screened, about 340 (0.77%) were called active. About 5% were inconclusive and are not listed. The call rests on the fitted dose curve; in most records, active means well fitted inhibition curve with a large enough effect; inconclusive means small, poorly fitted or top-dose-only effect; inactive means flat fitted curve, though single readings scatter. This is one part of the list.

test: Acumen qHTS Assay for Inhibitors of the mTORC1 Signaling Pathway in MEF (Tsc2-/-, p53-/-) Cells: Sytravon; settings: phospho-rpS6 immunofluorescence/PI, 24 h; series mostly up to 38.3 µM; activity change, negative = inhibition: at the top concentration;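 further: plate controls were DMSO for no effect and rapamycin for full effect; nearly all actives have a fitted effect of over 50% in size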
How it was run: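 Read-out: phospho-S6 Alexa-488 intensity over PI intensity per well, scored as % active cells using thresholds from rapamycin (7.5 nM) and DMSO controls. Tsc2-/-, p53-/- MEFs exposed to compound for 24 h; PI cell count recorded as viability.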

Row | SMILES | activity change, negative = inhibition
1 | Cc1nn(C)c2c1c(C(F)(F)F)cc(=O)n2CC(=O)N1CCCCC1 | inactive: 0%
2 | Cc1ccc2nc(-c3cccc(NC(=O)c4ccc(Br)o4)c3)oc2c1 | inactive: 2.54%
3 | CCOc1ccccc1-n1nnc(-c2nc(-c3ccccc3C)no2)c1C | inactive: 5.55%
4 | COc1ccc(C(=O)Nc2nnc(S(=O)(=O)N3CCCc4ccccc43)s2)cc1 | inactive: -11%
5 | Cc1ccc(NC(=O)CSc2ccc3nnc(CCNS(=O)(=O)c4ccccc4)n3n2)cc1Cl | inactive: -0.983%
6 | Cc1ccc(Cl)cc1NC(=O)N1CCC(CN2CCCCCC2)CC1 | inactive: -5.11%
7 | Cc1ccccc1NC(=O)c1cccc2c(=O)c3c([nH]c12)CCCC3 | inactive: -7.45%
8 | CCCCC(=O)OCc1cc(=O)n2nc(C3CCCCC3)sc2n1 | inactive: 3.47%
9 | CCC1CN(C(=O)Nc2cc(C)ccc2OC)c2cc(Cl)ccc2O1 (stereo unspecified) | inactive: -0.857%
10 | COc1ccccc1NCc1cccn1-c1nnc(N2CCCCCC2)s1 | inactive: -0.843%
11 | Cc1cc(C)n(-c2nc3ccccc3nc2Nc2ccc(Cl)c(Cl)c2)n1 | inactive: 0.843%
12 | COC(=O)c1ccc(NC(=O)CC2Nc3cc(C)c(C)cc3NC2=O)cc1 (stereo unspecified) | inactive: -7.9%
13 | Cc1cccc(OCC(=O)Nc2c(C(=O)N3CCN(c4ccccc4F)CC3)oc3ccccc23)c1 | inactive: -3.55%
14 | CCOc1ccc(S(=O)(=O)Nc2ccc3oc(C)c(C(=O)OC(C)C)c3c2)cc1 | inactive: -22.9%
15 | Cc1cc(C)cc(OCC(=O)NC(Cc2c[nH]c3ccccc23)C(=O)O)c1 (stereo unspecified) | inactive: 10.3%
16 | Cc1ccc(NC(=O)N2CCc3cc(S(=O)(=O)N4CCC(C)CC4)ccc32)cc1F | inactive: -1.94%
17 | CCOC(=O)c1ccc(N2C(=O)c3[nH]nc(-c4ccc(OC)cc4)c3C2c2ccccc2Cl)cc1 (stereo unspecified) | inactive: 2.33%
18 | CCOC(=O)N1CCN(C(=O)CN(c2cccc(Cl)c2)S(=O)(=O)c2ccccc2)CC1 | inactive: -14.9%
19 | CCCc1cc(=O)n2[nH]c(NC(=O)c3ccccc3Cl)nc2n1 | inactive: 0.362%
20 | CCCN(C(=O)c1cc2c(=O)oc3ccccc3c2s1)c1cccc(Cl)c1 | inactive: 10.2%
21 | COc1ccc(C2c3c(n(C)c4ccccc34)C(=O)N2CC(=O)Nc2cc(Cl)ccc2C)cc1 (stereo unspecified) | inactive: -10.9%

Row | SMILES | activity change, negative = inhibition
22 | O=C(Nc1ccccc1)N(Cc1cccs1)c1ccc(F)cc1 | inactive: -8.37%
23 | CCOC(=O)CSc1nc2cc3c(cc2c(=O)n1CCCC(=O)NCCc1ccc(OC)c(OC)c1)OCO3 | inactive: 0.544%
24 | CCOC(=O)c1sc(N2C(=O)c3oc4ccc(C)cc4c(=O)c3C2c2ccccc2F)nc1C (stereo unspecified) | inactive: 1.1%
25 | CCc1cccc(NS(=O)(=O)c2ccc3c(c2)n(C)c(=O)c(=O)n3C)c1 | inactive: 2.96%
26 | CCOC(=O)c1c(NC(=O)CSc2cn(CCNC(=O)c3ccc(OC)c(OC)c3)c3ccccc23)sc2c1CCCC2 | inactive: 10.6%
27 | Cc1ccc(CNC(=O)CCCn2nc(C)c3c(C)n(-c4ccccc4)nc3c2=O)cc1 | inactive: -5.77%
28 | CCc1nonc1NC(=O)c1oc2ccc(C)cc2c1C | inactive: -6.69%
29 | CCOC(=O)c1ccc(-n2c(-c3ccc(C)cc3)c(C)n3c4c(=O)n(C)c(=O)n(C)c4nc23)cc1 | inactive: 7.38%
30 | COc1ccc(-c2cc(-c3ccc4c(c3)NC(=O)CO4)nc3c2COc2ccc(F)cc2-3)cc1 | inactive: 7.36%
31 | CN(C)c1ccc(-c2nc(-c3ccco3)no2)cc1[N+](=O)[O-] | inactive: -0.208%
32 | Cc1ccc(Cl)cc1-n1ncc2c(NCCCc3ccccc3)ncnc21 | inactive: -14.8%
33 | CCOc1ccccc1CNC(=O)c1ccc2c(c1)nc1n2CCCCC1 | inactive: -2.63%
34 | Cc1c(Nc2nc3ccccc3n3c(C)nnc23)cccc1C(=O)O | inactive: 0.972%
35 | CCN(CC)S(=O)(=O)c1ccc2c(c1)N(CC(=O)N1CCN(c3cccc(OC)c3)CC1)C(=O)CO2 | inactive: 3.22%
36 | Cc1ccc(NC(=O)N2CC3CCCN3c3ccccc32)c(C)c1 (stereo unspecified) | inactive: 7.76%
37 | Fc1ccc(-n2ncc3c(N4CCCCCC4)ncnc32)cc1 | inactive: 5.68%
38 | Cc1ccc(-c2cc(C(=O)N(Cc3ccc(C(C)(C)C)cc3)Cc3ccco3)no2)cc1 | inactive: 0%
39 | CCc1cccc(C)c1NC(=O)CCn1c(=O)c2cccn2c2ccccc21 | inactive: 1.97%
40 | CC(C)C(=O)NCC1(N(C)C)CCCCC1 | inactive: 0.357%
41 | Cc1cc(N2CCN(c3cccc(C(F)(F)F)c3)CC2)n2nc(-c3ccccc3)nc2n1 | inactive: -0.867%
42 | Cc1ccc(NS(=O)(=O)c2cc3[nH]c(=O)c(=O)[nH]c3cc2C)cc1Cl | inactive: -6.42%

Row | SMILES | activity change, negative = inhibition
43 | CCOc1ccc(C(=O)Nc2c(C(=O)N3CCN(c4ccccc4F)CC3)oc3ccccc23)cc1 | inactive: -7.25%
44 | Cc1nc(SC(C)C(=O)Nc2ccccc2Cl)cc(-c2ccccc2)n1 (stereo unspecified) | inactive: -11.5%
45 | CCn1cc(C(=O)N2CCN(c3cc(C)ccc3C)CC2)c(=O)c2cc(S(=O)(=O)N3CCCCC3)ccc21 | inactive: -1.88%
46 | COc1ccc(N2CCN(Cc3cccn3-c3nnc(N4CCN(C5CCCCC5)CC4)s3)CC2)cc1 | inactive: -0.593%
47 | Cc1ccc([N+](=O)[O-])cc1S(=O)(=O)N1CCn2cccc2C1c1ccccc1 (stereo unspecified) | inactive: -1.71%
48 | CC(Oc1ccc(Br)cc1)C(=O)Nc1ncn[nH]1 (stereo unspecified) | inactive: 6.21%
49 | Cc1ccc2nc(-c3ccc(Cl)c(NC(=O)COc4ccc(C(C)C)cc4)c3)oc2c1 | inactive: -6.15%
50 | COc1ccc(NC(=O)CCc2nnc3n(Cc4ccccc4Cl)c(=O)c4ccccc4n23)cc1 | inactive: 0.48%
51 | Cc1ccc(C)c(NC(=O)C2CCCN(S(=O)(=O)c3cn(C)cn3)C2)c1 (stereo unspecified) | inactive: 0%
52 | Cc1ccc(N2C(=O)N(Cc3cc(=O)n4ccccc4n3)c3ccccc3S2(=O)=O)cc1Cl | inactive: -0.114%
53 | CCOc1ccccc1CNC(=O)Cn1cc2c(n1)-c1c(oc(C(=O)N3CCCC3)c1C)CC2 | inactive: -2.22%
54 | Cc1ccc(S(=O)(=O)N2CCN(Cc3nc4ccc(C)cc4o3)CC2)cc1 | inactive: 2.28%
55 | O=C(CS(=O)(=O)c1cccc2nsnc12)N1CCN(c2cccc(C(F)(F)F)c2)CC1 | inactive: -10.6%
56 | O=C(Cn1cc(S(=O)(=O)c2ccccc2)c(=O)c2cc3c(cc21)OCO3)Nc1ccc(Cl)cc1 | inactive: 3.56%
57 | COc1ccc(Br)cc1CNC(=O)CCSCc1ccc(C)cc1 | inactive: 0.326%
58 | CCNc1cc(N2CCN(C3CCCCC3)CC2)c2noc3c2c1C(=O)c1ccccc1-3 | inactive: -0.0167%
59 | CSc1ccc(CCNC(=O)c2ccc(-c3nc(COc4ccc(C)cc4)c(C)o3)cc2)cc1 | inactive: -0.258%
60 | CCOC(=O)CSc1nc2ccccc2c(=O)n1-c1cccc(C)c1 | inactive: 2.46%
61 | O=C(O)Cc1ccc(NC2(c3ccccc3)C(=O)c3ccccc3C2=O)cc1 | inactive: -10.1%
